Assay results: paper PMC3445614
These are yes or no findings as the source states them, for the method shown. In cells and extracts the contact can be indirect. Some results given as binding are weak or reduced against the parent protein; the word gives no strength.

The chains behind the UniProt entries cited, without tags or fusion partners. Where a name states a change or a piece, a line headed by the entry shows the natural chain unless it says otherwise. A line that says so, or that is headed by a name, gives the form on record, which may keep a tag or linker. Residues count along the entry.
UniProt P29590: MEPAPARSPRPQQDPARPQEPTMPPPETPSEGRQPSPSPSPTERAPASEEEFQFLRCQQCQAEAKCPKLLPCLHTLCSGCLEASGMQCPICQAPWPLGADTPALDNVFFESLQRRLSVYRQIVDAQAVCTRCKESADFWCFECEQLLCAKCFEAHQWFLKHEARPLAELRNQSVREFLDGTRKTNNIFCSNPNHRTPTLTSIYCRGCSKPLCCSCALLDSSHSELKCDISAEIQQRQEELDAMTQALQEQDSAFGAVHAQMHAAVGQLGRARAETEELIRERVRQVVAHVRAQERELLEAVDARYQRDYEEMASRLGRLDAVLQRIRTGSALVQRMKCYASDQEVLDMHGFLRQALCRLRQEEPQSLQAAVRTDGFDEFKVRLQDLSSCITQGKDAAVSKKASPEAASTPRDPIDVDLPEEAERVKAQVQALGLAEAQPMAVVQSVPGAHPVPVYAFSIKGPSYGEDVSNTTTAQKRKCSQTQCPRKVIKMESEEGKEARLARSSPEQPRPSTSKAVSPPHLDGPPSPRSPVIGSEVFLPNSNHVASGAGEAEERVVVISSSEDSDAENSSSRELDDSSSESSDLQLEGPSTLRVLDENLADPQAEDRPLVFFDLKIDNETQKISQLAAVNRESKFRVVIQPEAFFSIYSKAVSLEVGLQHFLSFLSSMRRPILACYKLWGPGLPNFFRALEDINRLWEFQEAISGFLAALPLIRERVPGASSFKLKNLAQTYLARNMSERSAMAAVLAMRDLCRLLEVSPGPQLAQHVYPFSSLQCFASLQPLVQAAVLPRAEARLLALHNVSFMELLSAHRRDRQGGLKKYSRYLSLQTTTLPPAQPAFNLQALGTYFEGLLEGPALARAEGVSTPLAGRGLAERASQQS
Luc-PMLVII (Renilla luciferase fused to the N-terminus of PML isoform VII) (P29590, form named): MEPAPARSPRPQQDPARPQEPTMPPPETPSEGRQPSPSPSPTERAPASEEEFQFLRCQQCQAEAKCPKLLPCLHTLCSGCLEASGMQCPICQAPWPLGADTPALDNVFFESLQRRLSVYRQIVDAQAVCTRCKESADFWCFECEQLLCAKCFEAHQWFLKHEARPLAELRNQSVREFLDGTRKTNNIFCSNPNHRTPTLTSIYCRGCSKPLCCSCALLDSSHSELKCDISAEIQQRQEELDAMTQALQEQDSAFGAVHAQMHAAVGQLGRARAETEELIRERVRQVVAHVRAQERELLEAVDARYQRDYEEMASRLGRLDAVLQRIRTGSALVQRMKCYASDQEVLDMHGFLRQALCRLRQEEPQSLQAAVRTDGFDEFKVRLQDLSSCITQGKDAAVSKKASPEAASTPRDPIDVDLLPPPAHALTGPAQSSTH
Luc-PMLIV (Renilla luciferase fused to the N-terminus of PML isoform IV) (P29590, form named): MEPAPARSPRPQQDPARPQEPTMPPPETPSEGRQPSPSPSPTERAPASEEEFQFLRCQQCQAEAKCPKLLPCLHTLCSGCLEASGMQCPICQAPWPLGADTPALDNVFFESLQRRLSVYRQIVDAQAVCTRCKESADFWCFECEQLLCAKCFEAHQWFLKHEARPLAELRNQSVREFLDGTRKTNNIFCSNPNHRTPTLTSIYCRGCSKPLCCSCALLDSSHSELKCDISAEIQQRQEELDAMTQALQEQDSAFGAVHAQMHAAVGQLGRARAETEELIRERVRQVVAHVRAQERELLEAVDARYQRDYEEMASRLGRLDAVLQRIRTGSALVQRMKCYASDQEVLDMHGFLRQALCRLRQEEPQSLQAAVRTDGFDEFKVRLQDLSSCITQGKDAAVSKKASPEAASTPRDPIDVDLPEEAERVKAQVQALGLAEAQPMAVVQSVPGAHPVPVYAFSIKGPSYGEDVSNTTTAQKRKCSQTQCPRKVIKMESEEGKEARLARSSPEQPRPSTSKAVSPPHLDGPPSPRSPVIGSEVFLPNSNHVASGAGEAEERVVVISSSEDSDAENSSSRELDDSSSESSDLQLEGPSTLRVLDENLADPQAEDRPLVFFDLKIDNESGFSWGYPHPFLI
Luc-PMLVI (Renilla luciferase fused to the N-terminus of PML isoform VI) (P29590, form named): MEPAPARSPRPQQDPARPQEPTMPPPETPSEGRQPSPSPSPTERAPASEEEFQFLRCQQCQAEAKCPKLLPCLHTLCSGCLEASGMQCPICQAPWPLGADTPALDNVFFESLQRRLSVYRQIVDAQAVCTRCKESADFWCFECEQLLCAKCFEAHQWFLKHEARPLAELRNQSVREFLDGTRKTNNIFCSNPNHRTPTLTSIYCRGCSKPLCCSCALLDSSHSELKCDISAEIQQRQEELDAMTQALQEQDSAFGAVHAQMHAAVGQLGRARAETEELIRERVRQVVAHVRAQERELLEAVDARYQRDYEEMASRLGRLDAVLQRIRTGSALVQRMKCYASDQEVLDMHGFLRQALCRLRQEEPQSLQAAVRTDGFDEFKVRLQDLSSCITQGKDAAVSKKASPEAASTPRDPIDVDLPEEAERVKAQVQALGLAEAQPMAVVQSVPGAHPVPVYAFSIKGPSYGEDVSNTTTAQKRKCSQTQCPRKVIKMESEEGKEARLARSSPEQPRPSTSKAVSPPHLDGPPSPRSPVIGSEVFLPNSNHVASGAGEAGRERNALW
Luc-PMLV (Renilla luciferase fused to the N-terminus of PML isoform V) (P29590, form named): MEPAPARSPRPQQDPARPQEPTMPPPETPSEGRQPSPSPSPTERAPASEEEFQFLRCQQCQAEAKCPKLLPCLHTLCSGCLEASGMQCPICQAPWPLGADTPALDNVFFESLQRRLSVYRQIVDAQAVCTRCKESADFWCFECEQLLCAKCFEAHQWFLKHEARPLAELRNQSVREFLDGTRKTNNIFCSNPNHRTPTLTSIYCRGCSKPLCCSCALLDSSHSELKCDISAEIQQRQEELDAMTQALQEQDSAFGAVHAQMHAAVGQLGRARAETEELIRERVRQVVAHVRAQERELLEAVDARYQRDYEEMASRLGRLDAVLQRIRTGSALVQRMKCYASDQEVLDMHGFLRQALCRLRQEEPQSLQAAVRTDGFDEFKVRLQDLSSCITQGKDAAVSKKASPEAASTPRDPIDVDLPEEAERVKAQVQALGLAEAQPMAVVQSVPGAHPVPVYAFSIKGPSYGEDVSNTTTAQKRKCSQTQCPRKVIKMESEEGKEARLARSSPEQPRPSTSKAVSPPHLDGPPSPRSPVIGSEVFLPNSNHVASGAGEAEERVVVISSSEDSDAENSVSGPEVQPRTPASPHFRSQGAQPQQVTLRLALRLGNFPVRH
Luc-PMLIII (Renilla luciferase fused to the N-terminus of PML isoform III) (P29590, form named): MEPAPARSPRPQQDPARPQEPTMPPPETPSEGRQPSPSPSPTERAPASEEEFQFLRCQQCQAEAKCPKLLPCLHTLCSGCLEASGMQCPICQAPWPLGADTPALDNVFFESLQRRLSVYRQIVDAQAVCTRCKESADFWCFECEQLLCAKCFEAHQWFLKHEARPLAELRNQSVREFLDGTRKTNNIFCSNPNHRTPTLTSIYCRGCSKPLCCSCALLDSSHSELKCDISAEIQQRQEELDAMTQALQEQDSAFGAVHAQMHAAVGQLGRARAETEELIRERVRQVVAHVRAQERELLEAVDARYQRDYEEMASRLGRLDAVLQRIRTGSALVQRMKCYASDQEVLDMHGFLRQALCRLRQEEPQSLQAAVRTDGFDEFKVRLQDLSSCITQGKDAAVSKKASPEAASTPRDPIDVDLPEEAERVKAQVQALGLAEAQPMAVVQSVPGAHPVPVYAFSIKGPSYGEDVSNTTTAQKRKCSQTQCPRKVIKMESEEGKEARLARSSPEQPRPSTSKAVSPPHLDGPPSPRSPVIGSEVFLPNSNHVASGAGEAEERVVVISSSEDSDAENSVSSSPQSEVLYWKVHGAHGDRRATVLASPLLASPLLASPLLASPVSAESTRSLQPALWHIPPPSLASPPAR
Luc-PMLII (Renilla luciferase fused to the N-terminus of PML isoform II) (P29590, form named): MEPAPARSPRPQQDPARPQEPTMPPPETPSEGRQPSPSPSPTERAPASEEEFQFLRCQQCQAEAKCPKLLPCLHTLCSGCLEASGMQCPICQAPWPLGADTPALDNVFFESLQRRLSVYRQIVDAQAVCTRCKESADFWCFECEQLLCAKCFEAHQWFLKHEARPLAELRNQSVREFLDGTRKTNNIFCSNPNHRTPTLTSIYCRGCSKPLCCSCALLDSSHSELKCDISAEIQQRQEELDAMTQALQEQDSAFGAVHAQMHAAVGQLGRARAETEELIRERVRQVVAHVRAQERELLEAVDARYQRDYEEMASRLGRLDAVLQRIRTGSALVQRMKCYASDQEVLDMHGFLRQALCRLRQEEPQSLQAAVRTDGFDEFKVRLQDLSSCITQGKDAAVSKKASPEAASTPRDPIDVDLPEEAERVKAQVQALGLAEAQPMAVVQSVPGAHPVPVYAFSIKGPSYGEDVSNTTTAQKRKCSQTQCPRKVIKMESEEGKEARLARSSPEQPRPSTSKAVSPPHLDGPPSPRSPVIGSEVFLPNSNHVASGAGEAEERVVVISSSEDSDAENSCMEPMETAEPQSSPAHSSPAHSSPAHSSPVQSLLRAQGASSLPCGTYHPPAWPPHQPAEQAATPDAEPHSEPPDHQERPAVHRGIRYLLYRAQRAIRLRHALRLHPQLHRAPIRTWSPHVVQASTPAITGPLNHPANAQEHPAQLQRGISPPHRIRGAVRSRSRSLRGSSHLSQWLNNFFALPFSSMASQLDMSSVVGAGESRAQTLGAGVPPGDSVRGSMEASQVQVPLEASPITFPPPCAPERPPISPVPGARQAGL
UniProt P55854, residues 1-92: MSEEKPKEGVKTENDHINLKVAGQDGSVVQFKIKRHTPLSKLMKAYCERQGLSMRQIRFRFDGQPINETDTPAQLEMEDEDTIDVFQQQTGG

How the values were obtained:
Assay in all cases: FRET or BRET; BRET titration in living HEK293T cells: fixed amount of the Luc fusion (donor), increasing amounts of the YFP fusion (acceptor); untreated or As2O3 (5 uM, 4 h); attached cells in PBS, coelenterazine H 5 uM; BRET ratio plotted against YFP/Luc expression
[1] = biological target: Luc-PMLI (Renilla luciferase fused to the N-terminus of PML isoform I) (UniProt P29590)
[2] = biological target: Luc-PMLVII (Renilla luciferase fused to the N-terminus of PML isoform VII) (UniProt P29590)
[3] = biological target: Luc-PMLIV (Renilla luciferase fused to the N-terminus of PML isoform IV) (UniProt P29590)
[4] = biological target: Luc-PMLVI (Renilla luciferase fused to the N-terminus of PML isoform VI) (UniProt P29590)
[5] = biological target: Luc-PMLV (Renilla luciferase fused to the N-terminus of PML isoform V) (UniProt P29590)
[6] = biological target: Luc-PMLIII (Renilla luciferase fused to the N-terminus of PML isoform III) (UniProt P29590)
[7] = biological target: Luc-PMLII (Renilla luciferase fused to the N-terminus of PML isoform II) (UniProt P29590)

binding [1]: binds | binding [2]: no binding | binding [3]: binds | binding [4]: binds | binding [5]: binds | binding [6]: binds | binding [7]: binds
Substance: YFP-SUMO3 (from UniProt P55854 1-92)
